Results reported in the supplement of paper PMC4967469.

Compound: C=CC(=O)Nc1cccc(Nc2nc(NC3CCC(N(C)C)CC3)nc3c2ncn3C(C)C)c1 [WZ3105]
Experiment: Viability of human cancer cell lines after 72 h of drug (GDSC screen)
Details: top dose inferred
Method: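 Human cancer cell lines in 384-well plates, medium with 10% serum, drug for 72 h over a 256-fold dose range (nine 2-fold or five 4-fold steps up to the top dose). Adherent lines were fixed and stained with the nucleic acid dye Syto60, suspension lines read with resazurin; signal relative to control wells, capped at 0 and 100%. One two-parameter sigmoid per drug and line, fitted in a mixed model over all curves with the slope shared within a line.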

| Cell Line | AUC | IC50 |
| --- | --- | --- |
| Daudi (Burkitt lymphoma, suspension, top dose 1.28 µM) | 0.678 | 234 nM |
| Detroit562 (head and neck, adherent, top dose 1.28 µM) | 0.974 | > 1280 nM |
| DoTc2-4510 (cervix, adherent, top dose 1.28 µM) | 0.894 | > 1280 nM |
| EB2 (Burkitt lymphoma, suspension, top dose 1.28 µM) | 0.477 | 69.8 nM |
| EB-3 (Burkitt lymphoma, suspension, top dose 1.28 µM) | 0.571 | 129 nM |
| EBC-1 (lung squamous cell carcinoma, adherent, top dose 1.28 µM) | 0.793 | 672 nM |
| EC-GI-10 (oesophagus, adherent, top dose 1.28 µM) | 0.946 | > 1280 nM |
| ECC10 (stomach, suspension, top dose 1.28 µM) | 0.642 | 202 nM |
| EFM-19 (breast, adherent, top dose 1.28 µM) | 0.737 | 554 nM |
| EFM-192A (breast, adherent, top dose 1.28 µM) | 0.981 | > 1280 nM |
| EFO-21 (ovary, adherent, top dose 1.28 µM) | 0.784 | 814 nM |
| EFO-27 (ovary, adherent, top dose 1.28 µM) | 0.77 | 610 nM |
| EGI-1 (biliary tract, adherent, top dose 1.28 µM) | 0.901 | > 1280 nM |
| EJM (lymphoid neoplasm, semi-adherent, top dose 1.28 µM) | 0.565 | 117 nM |
| EKVX (lung adenocarcinoma, adherent, top dose 10.24 µM) | 0.756 | 8680 nM |
| EM-2 (chronic myeloid leukaemia, suspension, top dose 1.28 µM) | 0.606 | 163 nM |
| EMC-BAC-1 (lung adenocarcinoma, adherent, top dose 1.28 µM) | 0.74 | 434 nM |
| EMC-BAC-2 (lung adenocarcinoma, adherent, top dose 1.28 µM) | 0.736 | 434 nM |
| EN (endometrium, adherent, top dose 1.28 µM) | 0.742 | 486 nM |
| EPLC-272H (lung squamous cell carcinoma, adherent, top dose 1.28 µM) | 0.515 | 88.5 nM |
| ES1 (Ewing sarcoma, adherent, top dose 1.28 µM) | 0.566 | 121 nM |

| Cell Line | AUC | IC50 |
| --- | --- | --- |
| ES3 (Ewing sarcoma, adherent, top dose 1.28 µM) | 0.534 | 99.7 nM |
| ES4 (Ewing sarcoma, adherent, top dose 1.28 µM) | 0.66 | 239 nM |
| ES5 (Ewing sarcoma, adherent, top dose 1.28 µM) | 0.586 | 143 nM |
| ES6 (Ewing sarcoma, adherent, top dose 1.28 µM) | 0.784 | 682 nM |
| ES7 (Ewing sarcoma, adherent, top dose 1.28 µM) | 0.484 | 72.1 nM |
| ES8 (Ewing sarcoma, adherent, top dose 1.28 µM) | 0.426 | 51.2 nM |
| ES-2 (ovary, adherent, top dose 1.28 µM) | 0.917 | > 1280 nM |
| ESO26 (oesophagus, adherent, top dose 1.28 µM) | 0.638 | 188 nM |
| ESO51 (oesophagus, semi-adherent, top dose 1.28 µM) | 0.836 | > 1280 nM |
| ESS-1 (endometrium, adherent, top dose 1.28 µM) | 0.909 | > 1280 nM |
| ETK-1 (biliary tract, adherent, top dose 1.28 µM) | 0.863 | > 1280 nM |
| EVSA-T (breast, adherent, top dose 1.28 µM) | 0.84 | 703 nM |
| EW-1 (Ewing sarcoma, semi-adherent, top dose 1.28 µM) | 0.435 | 53.9 nM |
| EW-3 (Ewing sarcoma, adherent, top dose 1.28 µM) | 0.531 | 98.4 nM |
| EW-7 (Ewing sarcoma, semi-adherent, top dose 1.28 µM) | 0.593 | 139 nM |
| EW-11 (Ewing sarcoma, adherent, top dose 1.28 µM) | 0.574 | 136 nM |
| EW-13 (Ewing sarcoma, suspension, top dose 1.28 µM) | 0.839 | 1020 nM |
| EW-16 (Ewing sarcoma, adherent, top dose 1.28 µM) | 0.678 | 258 nM |
| EW-18 (Ewing sarcoma, suspension, top dose 1.28 µM) | 0.459 | 61.2 nM |
| EW-24 (Ewing sarcoma, semi-adherent, top dose 1.28 µM) | 0.977 | > 1280 nM |
| EoL-1-cell (haematopoietic neoplasm, suspension, top dose 1.28 µM) | 0.691 | 255 nM |

| Cell Line | AUC | IC50 |
| --- | --- | --- |
| FADU (head and neck, adherent, top dose 1.28 µM) | 0.937 | > 1280 nM |
| FLO-1 (oesophagus, adherent, top dose 1.28 µM) | 0.624 | 204 nM |
| FTC-133 (thyroid, adherent, top dose 1.28 µM) | 0.983 | > 1280 nM |
| FU97 (stomach, adherent, top dose 1.28 µM) | 0.89 | > 1280 nM |
| FU-OV-1 (ovary, adherent, top dose 1.28 µM) | 0.899 | > 1280 nM |
| Farage (B-cell lymphoma, suspension, top dose 1.28 µM) | 0.6 | 143 nM |
| G-292 Clone A141B1 (osteosarcoma, adherent, top dose 1.28 µM) | 0.882 | > 1280 nM |
| G-361 (melanoma, adherent, top dose 1.28 µM) | 0.803 | 606 nM |
| G-401 (kidney, adherent, top dose 1.28 µM) | 0.935 | > 1280 nM |
| G-402 (soft tissue, adherent, top dose 1.28 µM) | 0.799 | 869 nM |
| G-MEL (melanoma, adherent, top dose 1.28 µM) | 0.889 | > 1280 nM |
| GAK (melanoma, adherent, top dose 1.28 µM) | 0.985 | > 1280 nM |
| GAMG (glioma, adherent, top dose 1.28 µM) | 0.731 | 377 nM |
| GB-1 (glioma, adherent, top dose 1.28 µM) | 0.963 | > 1280 nM |
| GCIY (stomach, adherent, top dose 1.28 µM) | 0.975 | > 1280 nM |
| GCT (soft tissue, adherent, top dose 1.28 µM) | 0.888 | 1270 nM |
| GDM-1 (acute myeloid leukaemia, suspension, top dose 1.28 µM) | 0.686 | 259 nM |
| GI-1 (glioma, adherent, top dose 1.28 µM) | 0.78 | 504 nM |
| GI-ME-N (neuroblastoma, adherent, top dose 1.28 µM) | 0.572 | 135 nM |
| GMS-10 (glioma, adherent, top dose 1.28 µM) | 0.819 | 723 nM |
| GOTO (neuroblastoma, adherent, top dose 1.28 µM) | 0.883 | > 1280 nM |

| Cell Line | AUC | IC50 |
| --- | --- | --- |
| GP5d (large intestine, adherent, top dose 1.28 µM) | 0.78 | 470 nM |
| GR-ST (lymphoblastic leukaemia, suspension, top dose 1.28 µM) | 0.572 | 132 nM |
| GRANTA-519 (B-cell lymphoma, suspension, top dose 1.28 µM) | 0.718 | 306 nM |
| GT3TKB (stomach, adherent, top dose 1.28 µM) | 0.979 | > 1280 nM |
| H4 (glioma, adherent, top dose 1.28 µM) | 0.978 | > 1280 nM |
| H9 (lymphoid neoplasm, suspension, top dose 1.28 µM) | 0.679 | 228 nM |
| H290 (mesothelioma, adherent, top dose 1.28 µM) | 0.989 | > 1280 nM |
| H513 (mesothelioma, semi-adherent, top dose 1.28 µM) | 0.896 | > 1280 nM |
| H2369 (mesothelioma, adherent, top dose 1.28 µM) | 0.976 | > 1280 nM |
| H2373 (mesothelioma, adherent, top dose 1.28 µM) | 0.761 | 564 nM |
| H2461 (mesothelioma, adherent, top dose 1.28 µM) | 0.965 | > 1280 nM |
| H2591 (mesothelioma, adherent, top dose 1.28 µM) | 0.805 | 890 nM |
| H2595 (mesothelioma, adherent, top dose 1.28 µM) | 0.909 | > 1280 nM |
| H2722 (mesothelioma, adherent, top dose 1.28 µM) | 0.797 | 738 nM |
| H2731 (mesothelioma, adherent, top dose 1.28 µM) | 0.948 | > 1280 nM |
| H2795 (mesothelioma, adherent, top dose 1.28 µM) | 0.838 | 849 nM |
| H2803 (mesothelioma, adherent, top dose 1.28 µM) | 0.982 | > 1280 nM |
| H2804 (mesothelioma, adherent, top dose 1.28 µM) | 0.917 | > 1280 nM |

A lower IC50 marks a more sensitive line; where the fit passes the top or lowest dose, that dose stands as a limit. For AUC the same curve is integrated over the 256-fold range of doses and scaled to a fraction; it is 1 without any effect and falls as sensitivity rises. The top dose, if marked as inferred, was calculated from the reported fits.
